# According to the supplement of paper PMC3334620:
# Over roughly 33,000 sequences, “E-score (-0.5 to 0.5)” has its median near -0.035; the highest 2% begin near 0.34. Some of the results follow.
# Molecular target: T1, Mot3 (UniProt P54785)
# T1 sequence: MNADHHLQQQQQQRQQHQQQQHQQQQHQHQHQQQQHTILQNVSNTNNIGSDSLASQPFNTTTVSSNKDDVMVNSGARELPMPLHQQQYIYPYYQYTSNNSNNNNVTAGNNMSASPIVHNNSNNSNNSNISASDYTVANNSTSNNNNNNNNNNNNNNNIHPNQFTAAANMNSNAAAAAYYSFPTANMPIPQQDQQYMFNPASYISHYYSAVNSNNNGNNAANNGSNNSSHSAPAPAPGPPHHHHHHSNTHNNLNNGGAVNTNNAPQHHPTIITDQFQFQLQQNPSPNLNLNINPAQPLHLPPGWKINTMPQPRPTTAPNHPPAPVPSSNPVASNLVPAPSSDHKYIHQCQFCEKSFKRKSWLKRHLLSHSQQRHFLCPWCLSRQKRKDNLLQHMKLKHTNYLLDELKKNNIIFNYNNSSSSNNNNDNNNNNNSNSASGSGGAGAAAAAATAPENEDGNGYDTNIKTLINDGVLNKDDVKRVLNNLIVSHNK
# Test: PBM E-score (8-mer binding enrichment) (E-score (-0.5 to 0.5)); higher = stronger / more preferred TF binding; most listed sequences are background and not binding sites
# Conditions: protein concentration: 200 nM; construct: GST-full length
# Method in brief: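 Universal all-10-mer Agilent arrays, double-stranded by primer extension on fresh or once-stripped slides, were probed with about 100-200 nM GST-tagged yeast transcription factors made by PURExpress. Fluorescent anti-GST detected bound protein, and masliner normalised the scans. E-scores from the Universal PBM Analysis Suite were given to each ungapped eight-base word pooled with its reverse complement.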
row,Sequence,PBM E-score
1,TTGCAAAA,0.00474
2,GGAGATCC,-0.276
3,AATGTTAA,0.279
4,AGACCGCA,-0.157
5,ACTGCGAT,-0.227
6,CAAGCAAG,-0.102
7,CACCGACC,-0.029
8,AGAGTTCA,-0.0722
9,CATTTGGA,0.0764
10,CGGGGGGA,-0.342
11,GACCCGTC,-0.162
12,AGGGCTGG,-0.237
13,AACATATA,0.251
14,CTAAGTTC,-0.0513
15,TAGTCTCA,-0.15
16,AAGGGTGC,-0.114
17,ACCCCACA,0.0239
18,CATTTCCG,-0.0295
19,AACCTACT,0.124
20,CTCGGAGC,-0.121
21,ACCCAGAG,-0.269
22,CTACGACA,0.0782
23,CCCGCCAG,-0.0395
24,CAAAAAGA,0.0742
25,CGTTAGGC,0.205

row,Sequence,PBM E-score
1,GGCCTCGA,-0.0581
2,CCTGGCAA,-0.0523
3,AGCTCCAA,-0.0344
4,TCAAGGGA,-0.213
5,AGGCGCGA,0.0693
6,ATCAACCC,0.148
7,GCTTCCCC,-0.245
8,GTCACTAA,0.108
9,ATTACCGC,0.0705
10,AAGATTTC,0.0869
11,ACCATTTG,-0.0739
12,ATCATCTG,-0.0881
13,AGCTTGAA,-0.122
14,GAACTAAA,0.0819
15,TCAGACCA,-0.201
16,GCGATTAA,-0.0553
17,CGTGTCAA,0.342
18,CAGTCCCG,-0.225
19,GAGGCGTA,0.0467
20,CGTGCTAG,-0.0215
21,AGTAGCTG,-0.103
22,AACTATAT,0.147
23,ATAGGCGG,0.0649
24,GGACAGAC,-0.15
25,CGCGACAC,-0.0191

row,Sequence,PBM E-score
1,ATTTTACC,0.172
2,CGCTTCCA,-0.199
3,GTTTGGAA,0.00293
4,CGTGAGCA,-0.223
5,CAATACCG,0.0384
6,ACTTCTCA,-0.0486
7,GACAGTGC,-0.0882
8,AGTGCGTA,0.18
9,GAAGGATC,0.0378
10,ACCACGTA,0.21
11,CGAGGAAG,-0.203
12,CCTTATGA,-0.0503
13,GGAGCGCA,-0.281
14,CAAGTTAC,0.17
15,CCTTTCAG,0.00251
16,GCCACATA,-0.124
17,CGCTTACC,-0.0192
18,GTTTGAAA,0.0991
19,ACAATGTG,0.145
20,ACATGCGT,0.341
21,CCTTAACG,0.197
22,CACCACCA,-0.177
23,AAATGCGG,-0.0946
24,AGATCTTA,-0.0626
25,GCGCATTA,0.118

row,Sequence,PBM E-score
1,CGTGATGC,-0.108
2,CGGGATGC,-0.128
3,CCGACGGC,-0.0929
4,CTTGCGCA,-0.127
5,GTTACTCA,0.164
6,CCATTGGA,-0.123
7,GATGTGTA,0.347
8,CGACGGAC,-0.19
9,AAAATGAA,0.0677
10,CATTTCGC,-0.122
11,ATCAAGCG,-0.173
12,CTTTGCGC,0.0652
13,GACAATCA,0.0115
14,CTTAAACC,-0.0672
15,GGACCACC,-0.294
16,GGCCCACA,-0.194
17,CGAGTAAG,0.00102
18,CACGTGGC,-0.0488
19,CCTGTTTA,0.209
20,AGGCGGTC,-0.116
21,CCTCGCGA,-0.18
22,ACAAGTGG,-0.0425
23,CGATGAAC,-0.113
24,ACATGCAA,0.261
25,ATCCGTAC,0.0206

row,Sequence,PBM E-score
1,GGAACATA,0.174
2,CTAACGGA,-0.115
3,CGATGTAG,0.103
4,CTTTCTTC,0.0228
5,AACAAATT,0.192
6,AGGATACG,-0.00899
7,AGAAATAC,0.179
8,GCGATGAA,-0.107
9,AGCTAGTA,0.0384
10,CTTCAAAC,-0.0135
11,ATGGTAGA,-0.105
12,CTGAAACA,0.197
13,AACACGGT,0.353
14,GAGGAGGC,-0.0566
15,AGCTAGCT,-0.155
16,AGTATTTA,0.0873
17,AAGCAAGC,-0.162
18,AGTGAGCG,-0.206
19,GTAAATAC,0.228
20,GGAGTGCA,-0.198
21,TTGCGAAA,0.168
22,AAGTTTCC,0.177
23,AATGTGCA,0.101
24,GAAAAGTA,0.0562
25,AGCATGGG,-0.045

row,Sequence,PBM E-score
1,GAATGAGA,-0.141
2,AAAGAATC,0.0124
3,GATCTGCC,-0.0298
4,ATACGATC,-0.0707
5,ACAGCAAT,0.0493
6,GAGCAGCA,-0.129
7,CCGTTCCC,-0.126
8,GTAGTCAC,0.275
9,CTAGAGGA,0.0404
10,AGAGCTAG,-0.102
11,AGTGTAGC,0.0209
12,GCCTGCAA,0.326
13,AAGGGGTG,0.0283
14,ACTTCGAT,-0.12
15,CGCTACTC,-0.251
16,AACTCATT,-0.201
17,CATGCATG,0.0529
18,AGTGGCCA,-0.158
19,TAGTTTAA,0.196
20,CGAGACTC,-0.242
21,GAGGTCGC,-0.277
22,GACCGGGC,-0.281
23,AGTACCGG,-0.0874
24,AGAATACC,-0.0543
25,CTAAGTAG,0.132

row,Sequence,PBM E-score
1,TAACCCTA,0.0752
2,GCGTAGCA,-0.112
3,ACCGCCGT,-0.266
4,ATCGGCGA,-0.331
5,AACGATTA,0.139
6,ATACGTAT,0.265
7,ATAGATTC,0.108
8,ACCCTGCA,0.0203
9,CAACATGG,0.337
10,ATGGCACG,-0.0627
11,GCTCCCCA,-0.188
12,CTTGGGCA,0.105
13,AAAAGTGT,0.0608
14,GGGACGTA,0.0574
15,GAGACTGA,-0.217
16,CTAACCTA,-0.0541
17,GAATCGAC,-0.166
18,CGCTTACA,0.185
19,GCCCATAA,-0.0566
20,AATTACCA,0.174
21,GCTCACCA,-0.172
22,TGTAGCAA,0.157
